# “And” between values parts separate entries of the source, which are not always exact repeats. Equal values may be shown once.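 Exposure lasted 48 hours, with cells grown in 96-well plates and compounds tested at five concentrations. Abbreviation: GI50, concentration required for 50% inhibition of growth. The concentration for full growth arrest is given as TGI.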 Square brackets hold non-standard residues; d marks the D form. Peptide text beside a SMILES is read from it. Ava = NCCCCC(=O)O; Mpa = O=C(O)CCS
# Tested on: NCI-H322M lung
# Experiment: NCI-60 cell line screen, 48 h
SMILES,TGI,GI50
O=C(n1c2ccccc2c2n[nH]c(=S)nc21)C(F)(F)F,> 100 µM,–
Cc1cccc2c(=O)c3cccc([C@H](C)C(=O)O)c3oc12,> 100 µM,–
O=C(O)c1cccc([As]=[As]c2cccc(C(=O)O)c2)c1 (configuration not stated),> 100 µM,–
Nc1c(C(=O)c2cccc(-c3cccnc3)c2)cnn1-c1ccc(F)cc1,> 25 µM,> 25 µM
CC(=O)/C=C1\CC(=O)N(C)c2ccccc2N1,> 100 µM,–
COc1ccc2nc3cc(Cl)ccc3c(Sc3ccc(N)cc3)c2c1,31.7 µM,–
CCN(CC)Cc1cc(N=Nc2c(O)ccc3c(N=Nc4ccc(O)c(CN(CC)CC)c4)c(O)ccc23)ccc1O,17 µM,–
O=C1/C(=C/c2ccc(F)cc2)COc2ccc(O)c(O)c21,> 100 µM,4.22 µM
COc1cc(/C=C/c2ccc(OC)c(OC)c2)oc(=O)c1,> 250 µM,–
COc1ccc(-c2nc(NC(=O)CS(=O)(=O)c3ccc(F)cc3)sc2C)cc1,> 100 µM,42.3 µM
O=C(NCCCN1CCN(CCCNC(=O)c2cccc3ccccc23)CC1)c1cccc2ccccc12,> 100 µM,–
COc1ccc2c(=O)c(-c3cc(OC)c(OC)cc3OC)coc2c1,> 100 µM,–
NCCCn1c(Cl)nc2ccccc21,> 100 µM,–
CN(C)Cc1ccc(NC(=O)c2cncc(C#Cc3cnc(N)c4ncccc34)c2)cc1C(F)(F)F,3.18 µM,1.71 µM
CCO/N=C\c1ccc2oc(-c3ccccc3)cc(=O)c2c1,47 µM,–
CC1OC(NCCNCCNC2OC(C)C(O)C(O)C2O)C(O)C(O)C1O (configuration not stated),> 100 µM,–
CCC1c2[nH]c3ccccc3c2C[C@H]2C(=O)NC(C)C(=O)N12 (some centres not stated),> 100 µM,–
CCc1cn2c(/C=N/N=C(N)N)c(-c3cc(C)c(Cl)cc3Cl)nc2s1,3.98 µM,–
COc1ccc(C2CC(c3sc(Nc4ccc(C)cc4)nc3C)=NN2)cc1 (configuration not stated),51.2 µM,–
COc1ccc(-c2c(C#N)c(N)[nH]c(=S)c2C#N)cc1,> 100 µM,–
O=C(O)CCCN1C(=O)/C(=C/C(Cl)=C/c2ccccc2)SC1=S,10.2 µM,2.78 µM
COc1cc(/C=C/C(=O)c2c(C)n([O-])c3ccccc3[n+]2=O)cc(OC)c1OC,25.5 µM,11.6 µM
COc1ccc(-c2cn(C)c3c2-n2cccc2C3=O)cc1O,20.3 µM,4.03 µM
O=C(CSSCC(=O)c1ccc(Cl)cc1)c1ccc(Cl)cc1,51.3 µM,10.2 µM

SMILES,TGI,GI50
COC(=O)C1(Cc2ccc3c(c2)CCC3)Cc2ccc3c(c2C1=O)CCC3 (configuration not stated),> 100 µM,–
C=C1C(=O)OC2CC1C(OC(=O)/C=C/c1ccccc1)C/C(C)=C/CC/C(C)=C/CCC2(C)O (configuration not stated),13.7 µM,–
CC(O)C(CO)NC(=O)C1CSSCC(NC(=O)C(N)Cc2ccccc2)C(=O)NC(Cc2ccccc2)C(=O)NC(Cc2c[nH]c3ccccc23)C(=O)NC(CCCCN)C(=O)NC(C(C)O)C(=O)N1 (configuration not stated),> 100 µM,–
CC(C)(C)OC(=O)N(CCCCN(CCCn1c2c(c3ccccc3c1=O)C(=O)c1ccccc1-2)C(=O)OC(C)(C)C)CCCn1c2c(c3ccccc3c1=O)C(=O)c1ccccc1-2,> 100 µM,> 100 µM
Nc1n[n+]([O-])c2ccc(Cl)cc2[n+]1[O-],73.8 µM,–
Cc1cc(=O)[nH]c2cc(NC(=O)C(C)NC(=O)C(C)NC(=O)C(C)NC(=O)OC(C)(C)C)ccc12 (configuration not stated),> 15 µM,–
COC(=O)NC1(NC(=O)OC)NC(=O)c2ccccc2N1,> 100 µM,–
Cc1cc(NS(=O)(=O)c2ccc(NC(=O)c3ccc(Cl)c4c(Nc5ccc(S(=O)(=O)Nc6cc(C)on6)cc5)c5ccccc5nc34)cc2)no1,33.6 µM,–
CN(C)CCNC(=O)c1ccc2c(c1)oc1cc3ccccc3c(=O)n12,30.1 µM,12.4 µM
COc1ccc(Cn2cc3c(c2-c2ccccc2)CCc2cnoc2-3)cc1,> 100 µM,2.09 µM
CCC(C)C(Nc1c2ccccc2nc2c(C(=O)NCCN(C)C)cccc12)C(=O)O (configuration not stated),61.8 µM,–
CC(C)CC1c2[nH]c3ccccc3c2C[C@H]2C(=O)NC(Cc3c[nH]c4ccccc34)C(=O)N12 (some centres not stated),45.1 µM,–
O=C(c1ccccc1)c1nc2c(Cl)ccc(Cl)c2cc1C(Br)Br,2.4 µM,–
O=C(N/N=C\c1ccc(Cl)cc1)Nc1ccc2ccccc2c1,> 100 µM,–
COc1ccc2[nH]c3c(C)c4c(c(C)c3c2c1)CN(C)C=C4,19.8 µM,–
Cc1cccc(CNc2c3ccccc3nc3ccccc23)c1,6.11 µM,2.1 µM
O=C(NC(=S)Nc1ccc(Br)cc1)c1ccc2c(c1)Sc1ccccc1O2,> 100 µM,–
CC(=O)OC1(Sc2ccccc2)CC2[C@H]3COC(C)(C)O[C@H]3CC[C@@]2(C)CC1=O (some centres not stated),> 100 µM,–
CC(=O)C1=C(C)N(c2ccccc2)C2(O)C3=C(C(=O)c4ccccc4C3=O)C(O)=CC12Cl (configuration not stated),25 µM,–
O=C(Cn1c2ccc(Br)cc2c2nc3ccccc3nc21)NCc1ccccc1,> 100 µM,–
CC(NCCN(C)C)C1CCC2C3CCc4cc(O)ccc4C3CCC12C (configuration not stated),13.9 µM,–
CN[C@@H](C)C(=O)N[C@H](C(=O)N1CCC[C@H]1c1nc(C(=O)c2ccc(F)cc2)cs1)C1CCCCC1,> 100 µM,42.7 µM
Cc1cc(NC(=O)NCCOc2ccc(N3C(N)=NC(N)=NC3(C)C)cc2Cl)ccc1S(=O)(=O)F,> 100 µM,2.44 µM
COc1ccc(C2=C(c3ccc(OC)cc3)C(=O)OC2)cc1,> 51.7 µM,3.69 µM

SMILES,TGI,GI50
CC(C)(C)C1=CC(=N/N=c2\scc(-c3ccccc3)n2Cc2ccccc2)C=C(C(C)(C)C)C1=O,> 100 µM,–
Nc1nc(N)nc(CCCCc2nc(N)nc(N)n2)n1,> 100 µM,–
CNc1c2ccccc2nc2occ(Cl)c12,74.9 µM,20.3 µM
N.N.N.N.N#N.N#N.[Cl-].[Os+6],> 100 µM,> 100 µM
CCOC(=O)/C(C(N)=O)=C(\O)C(=O)/C=C(\O)c1ccc(Cl)cc1,> 100 µM,–
Nc1[nH]nc(Nc2ccccc2)c1-c1nc2ccccc2s1,11.7 µM,2.2 µM
COC(=O)CNC(=O)C(=O)c1c(O)c(O)c(C(C)C)c2cc(C)c(-c3c(C)cc4c(C(C)C)c(O)c(O)c(C(=O)C(=O)NCC(=O)OC)c4c3O)c(O)c12,10.6 µM,1.74 µM
CC(C)(C)OC(=O)NCCCCCCCCCn1c2c(c3ccccc3c1=O)C(=O)c1ccccc1-2,> 100 µM,> 100 µM
COc1ccc(-n2cc(-c3cc(OC)c(OC)c(OC)c3)nc2SCc2cccc(C#N)c2)cc1OC,> 100 µM,> 100 µM
OCc1c(-c2cccs2)oc(-c2cccs2)c1CO,> 100 µM,29.8 µM
CCC1(O)C(=O)OCc2c1cc1n(c2=O)Cc2cc3cc4c(cc3nc2-1)OCO4 (configuration not stated),4.51 µM,–
Cc1cn(S(=O)(=O)c2ccccc2)c2c(OCc3ccccc3)cc([N+](=O)[O-])cc12,> 100 µM,–
O=[N+]([O-])c1ccc(Sc2cccc[n+]2[O-])c2nonc12,94.4 µM,15.5 µM
NC(CSC(c1ccccc1)(c1ccccc1)c1ccccc1)C(=O)O (configuration not stated),110 µM and > 100 µM,1.39 µM and 0.674 µM
O=C(CCN1CCCC1)Nc1ccc2c(Nc3ccc(F)cc3)c3ccccc3nc2c1,3.59 µM,1.41 µM
CC1=C(C)C(=O)OC(C(C)(O)C2(O)CC3OC34C3CC(O)C56OC5C=CC(=O)C6(C)C3CCC42C)C1 (configuration not stated),21.2 µM,–
COc1ccc2c(c1)/C(=C\c1c(Cl)nc3n1CCS3)C(=O)N2,> 100 µM,–
O=[N+]([O-])c1ccc(C[P+]2(c3ccccc3)CCCCC2)cc1 (tested in a mixture with another compound),> 100 µM,–
O=C(O)CCC(O)=C1S(=O)(=O)OCCOS1(=O)=O,> 100 µM,–
Cn1c(=O)nc2n(-c3ccc(Br)cc3)c3ccccc3nc-2c1=O,26 µM,–
COc1cc(C[C@H]2COC(=O)[C@]2(O)Cc2ccc(OCc3ccccc3)c(OC)c2)ccc1OCc1ccccc1,> 100 µM,> 100 µM
O=C1OC(C(O)CO)C(C(O)CO)OC1=O (configuration not stated),> 10 µM,–
COc1ccc(CCN2CCCn3c2nc2ccccc2c3=O)cc1,> 100 µM,0.274 µM
COc1cc(C[C@@]2(C)[C@@H]3CCC[C@H](CO)[C@@]3(C)CC[C@@H]2C)c(Cl)c(OC)c1,30.9 µM,–

SMILES,TGI,GI50
Nc1cc(CO)cc(Nc2c3ccccc3nc3ccccc23)c1,64.3 µM,–
Cc1cc(C)c2c(=N)c3ccccc3n(CCCCCCCCn3c4ccccc4c(=N)c4c(C)cc(C)nc43)c2n1,2.37 µM,–
CCCCC[C@@H]1CCCC2NC(CCCCCO[Si](c3ccccc3)(c3ccccc3)C(C)(C)C)CCC21 (some centres not stated),28.7 µM,–
CCOC(=O)NC(Nc1ccc(F)cc1F)(C(F)(F)F)C(F)(F)F,> 100 µM,–
O=C(Nc1ccccc1C(=O)NCc1ccccc1)/C(=C/c1ccccc1O)NC(=O)c1ccccc1,> 100 µM,–
Cc1cccc(NC(=O)c2c(N)[n+]([O-])c3ccccc3[n+]2[O-])c1,30.9 µM,–
O=c1[nH]c2nc3ccccc3c(=O)n2nc1Cc1ccccc1,> 100 µM,–
O=C1CCCC2=C1CC1=C(CCCC1=O)N2c1ccc(Cl)cc1,> 100 µM,–
COc1ccc2nc3cc(Cl)ccc3c(Nc3ccccc3-c3ccccc3Nc3c4ccc(Cl)cc4nc4ccc(OC)cc34)c2c1,> 78 µM,–
C/C(Cc1ccc2c(c1)OCO2)=N\N=c1\sc2ccccc2n1C,> 100 µM,–
CN1CCN(C2=C(Cl)C(=O)c3ccccc3C2=O)CC1,8.64 µM,3.04 µM
COc1cc(/C=C/C(=O)CC(=O)/C=C/c2cc(C)c(O)c(OC)c2)cc(C)c1O,> 100 µM,–
CC(NC(=O)CCS)C(=O)NC(C)C(=O)NC(Cc1c[nH]c2ccccc12)C(=O)NC(Cc1c[nH]cn1)C(=O)NC(CO)C(=O)NC(Cc1c[nH]c2ccccc12)C(=O)NCCCCC(=O)NC(C)C(=O)NC(CCC(N)=O)C(=O)NC(CCCCN)C(=O)NC(C)C(=O)NC(CCCNC(=N)N)C(=O)NC(CCCCN)C(N)=O (configuration not stated) ([Mpa]AAWHSW[Ava]AQKARK-NH2; configuration not given here),> 100 µM,–
CS(=O)(=O)OCCN(CCOS(C)(=O)=O)c1ccc(C=Nc2ccc(-c3csc(Cc4ccccc4)n3)cc2)c(Cl)c1,> 100 µM,–
O=C1c2ccccc2C(=O)c2c1ccc1conc21,26 µM,–
COc1cc2c(cc1OC)C(CCN)=NCC2,> 100 µM,–
C=CC[P@]1(=O)O[C@H](c2ccccc2)C(C)N1C(C)C (some centres not stated),> 100 µM,–
COc1ccc2[nH]c3ccc4cc[n+](CCN5CCC(C6CCN(CC[n+]7ccc8ccc9[nH]c%10ccc(OC)cc%10c9c8c7)CC6)CC5)cc4c3c2c1,50 µM and > 86.3 µM,1.8 µM
O=CNC(Cc1cnc[nH]1)C(=O)O (configuration not stated),> 100 µM,–
Cc1nc2c(Cl)cc(Cl)cc2c2c1CCO2,> 100 µM,–
COc1cc2ncnc(NS(=O)(=O)c3cc4ccccc4s3)c2cc1OC,> 100 µM,–
